Assay results: publication PMC6794377
Substitutions are numbered along the chain they refer to. These are yes or no findings as the source states them, for the method shown. For part of these data: Binding seen in cells or lysates may run through a third protein. Some results given as binding are weak or reduced against the parent protein; the word gives no strength. For part of these data: Tags and fused reporters may be left off the sequences shown.

By UniProt entry, the sequences of proteins in these tests, tags left out. Where a name states a change or a piece, a line headed by the entry shows the natural chain unless it says otherwise.
UniProt Q9P2J5: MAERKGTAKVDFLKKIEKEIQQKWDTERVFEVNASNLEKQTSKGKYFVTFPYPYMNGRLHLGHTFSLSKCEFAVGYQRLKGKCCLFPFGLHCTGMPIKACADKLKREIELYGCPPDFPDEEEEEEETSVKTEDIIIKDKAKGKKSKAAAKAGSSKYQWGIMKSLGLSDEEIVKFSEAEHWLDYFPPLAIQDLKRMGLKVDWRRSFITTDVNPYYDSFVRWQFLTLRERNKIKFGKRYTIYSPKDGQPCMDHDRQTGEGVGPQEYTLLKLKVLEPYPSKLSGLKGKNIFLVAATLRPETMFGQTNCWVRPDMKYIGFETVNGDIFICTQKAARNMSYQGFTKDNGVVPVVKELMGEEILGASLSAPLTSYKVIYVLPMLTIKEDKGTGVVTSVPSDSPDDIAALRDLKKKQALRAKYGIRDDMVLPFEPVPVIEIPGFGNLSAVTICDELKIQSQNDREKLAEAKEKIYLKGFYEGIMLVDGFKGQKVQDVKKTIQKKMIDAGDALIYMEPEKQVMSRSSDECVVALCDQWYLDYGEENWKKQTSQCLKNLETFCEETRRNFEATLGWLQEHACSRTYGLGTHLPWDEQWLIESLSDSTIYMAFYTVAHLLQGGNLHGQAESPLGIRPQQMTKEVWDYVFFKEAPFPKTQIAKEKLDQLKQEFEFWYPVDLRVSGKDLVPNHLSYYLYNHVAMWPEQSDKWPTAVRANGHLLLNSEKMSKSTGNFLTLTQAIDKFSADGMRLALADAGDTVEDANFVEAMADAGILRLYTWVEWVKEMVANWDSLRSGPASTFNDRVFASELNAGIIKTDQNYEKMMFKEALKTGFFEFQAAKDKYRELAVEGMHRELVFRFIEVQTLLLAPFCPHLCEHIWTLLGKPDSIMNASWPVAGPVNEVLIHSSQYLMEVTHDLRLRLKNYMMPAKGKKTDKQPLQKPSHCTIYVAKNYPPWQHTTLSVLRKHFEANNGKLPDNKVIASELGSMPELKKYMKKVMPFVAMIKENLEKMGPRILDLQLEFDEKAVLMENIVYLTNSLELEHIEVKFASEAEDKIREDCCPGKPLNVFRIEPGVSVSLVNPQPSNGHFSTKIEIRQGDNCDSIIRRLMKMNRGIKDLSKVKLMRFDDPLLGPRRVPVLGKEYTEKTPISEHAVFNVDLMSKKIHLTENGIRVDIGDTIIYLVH

Experiments:
[1] = target: T1, TLN161, N-terminal appended domain of hThrRS-L (Met1-Ile161), Gal4 DNA binding domain fusion (human) (UniProt A2RTX5); experiment: two-hybrid; TLN161 with pGADT7 constructs of MSC components in Y2HGold; data not shown
T1 sequence: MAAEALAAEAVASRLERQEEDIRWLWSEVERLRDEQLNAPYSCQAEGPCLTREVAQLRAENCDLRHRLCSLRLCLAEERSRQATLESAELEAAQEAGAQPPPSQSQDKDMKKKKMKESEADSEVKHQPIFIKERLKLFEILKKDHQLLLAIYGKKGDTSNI

[2] = target: T2, native hThrRS-L, endogenous in HEK293T (human (endogenous in HEK293T)) (UniProt A2RTX5); experiment: SEC; HEK293T whole cell lysate on Superose-6, 50 mM Tris-HCl pH 7.5, 50 mM NaCl, 1 mM PMSF, 1 mM DTT; fractions immunoblotted
T2 sequence: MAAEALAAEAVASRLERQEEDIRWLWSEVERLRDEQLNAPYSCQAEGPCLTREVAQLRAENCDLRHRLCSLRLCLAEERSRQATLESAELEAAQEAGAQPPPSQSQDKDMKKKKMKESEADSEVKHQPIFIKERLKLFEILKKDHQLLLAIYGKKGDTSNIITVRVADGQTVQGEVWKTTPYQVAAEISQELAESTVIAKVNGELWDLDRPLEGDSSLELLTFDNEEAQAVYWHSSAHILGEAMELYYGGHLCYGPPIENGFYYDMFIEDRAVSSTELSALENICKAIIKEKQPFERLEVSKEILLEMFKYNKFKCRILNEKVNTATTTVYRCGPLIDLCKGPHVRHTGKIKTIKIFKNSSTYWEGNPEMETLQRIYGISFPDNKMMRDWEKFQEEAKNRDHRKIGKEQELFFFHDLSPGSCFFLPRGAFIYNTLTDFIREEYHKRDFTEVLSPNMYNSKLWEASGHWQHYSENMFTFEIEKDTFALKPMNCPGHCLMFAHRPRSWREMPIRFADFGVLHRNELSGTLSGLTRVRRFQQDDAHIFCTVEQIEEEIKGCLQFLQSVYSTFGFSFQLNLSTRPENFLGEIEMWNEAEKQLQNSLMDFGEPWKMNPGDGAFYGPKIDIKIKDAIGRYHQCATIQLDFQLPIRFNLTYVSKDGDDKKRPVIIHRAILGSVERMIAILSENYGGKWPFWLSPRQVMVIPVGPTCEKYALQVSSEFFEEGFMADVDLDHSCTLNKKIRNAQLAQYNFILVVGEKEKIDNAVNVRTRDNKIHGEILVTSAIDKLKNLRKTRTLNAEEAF

[3] = target: T3, hThrRS-L-Ha/A-FLAG (human) (UniProt A2RTX5); experiment: co-IP; FLAG-tagged hThrRS-L or mutant overexpressed in HEK293T; IP with anti-FLAG, Dynabeads protein G, 4°C; endogenous partners detected by western blotting
T3 sequence: T2 sequence with L15A, I22A, L25A, V29A, L32A

[4] = target: T4, hThrRS-L-Δ161-FLAG, hThrRS-L with TLN161 deleted, C-terminal FLAG tag (human) (UniProt A2RTX5); experiment: as above
T4 sequence: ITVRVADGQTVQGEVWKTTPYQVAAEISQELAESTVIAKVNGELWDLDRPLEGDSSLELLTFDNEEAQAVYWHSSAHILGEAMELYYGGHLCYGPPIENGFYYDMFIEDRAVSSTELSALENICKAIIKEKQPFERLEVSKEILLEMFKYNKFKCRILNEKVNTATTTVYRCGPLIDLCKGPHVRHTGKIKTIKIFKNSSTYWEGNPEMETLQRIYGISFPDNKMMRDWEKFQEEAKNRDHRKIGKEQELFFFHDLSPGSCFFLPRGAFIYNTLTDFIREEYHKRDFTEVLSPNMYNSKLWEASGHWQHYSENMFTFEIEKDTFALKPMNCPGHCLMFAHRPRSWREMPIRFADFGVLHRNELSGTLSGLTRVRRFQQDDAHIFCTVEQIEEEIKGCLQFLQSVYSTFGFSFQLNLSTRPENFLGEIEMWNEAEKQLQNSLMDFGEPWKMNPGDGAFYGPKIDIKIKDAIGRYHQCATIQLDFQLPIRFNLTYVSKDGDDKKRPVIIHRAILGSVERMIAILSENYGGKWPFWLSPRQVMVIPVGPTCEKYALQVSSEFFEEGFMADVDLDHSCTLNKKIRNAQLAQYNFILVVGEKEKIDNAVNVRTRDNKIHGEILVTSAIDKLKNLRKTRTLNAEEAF

[5] = target: T5, C-terminal FLAG-tagged human threonyl-tRNA synthetase-like protein (hThrRS-L-FLAG) (human) (UniProt A2RTX5); experiment: as above
T5 sequence: T2 sequence

[6] = target: T6, hThrRS-L-Hb/A-FLAG (human) (UniProt A2RTX5); experiment: as above
T6 sequence: T2 sequence with L57A, L64A, L68A, L71A, L75A

Q: How did the binding [1] turn out when “C-terminal appended domain of human LeuRS (Gly1066-His1176), Gal4 activation domain fusion (from UniProt Q9P2J5 1066-1176) (domain or fragment)” was run?
A: binds weakly

Q: “LeuRS, endogenous in HEK293T (from UniProt Q9P2J5 1-1176) (enzyme)” was tested. Which binding [2] did it give?
A: binds

Q: And the binding [3]?
A: no binding

Q: What about the binding [4] of the same substance?
A: no binding

Q: And the binding [5]?
A: binds

Q: And the binding [6]?
A: no binding
